Reference: PubChem BioAssay AID540317 (National Center for Advancing Translational Sciences (NCATS), 2011)
Screen size: about 390,000 compounds; about 2,200 (0.56%) were called active. The shares of active, inactive and inconclusive entries below differ from those in the screen. The call rests on the fitted dose curve; in most records, active means well fitted inhibition curve with a large enough effect; inconclusive means small, poorly fitted or top-dose-only effect; inactive means no such curve, though single readings can be large or run the other way. Where the call is inconclusive, the potency comes from a doubtful curve fit.

These compounds were tested against Chromobox protein homolog 1 (Homo sapiens) (UniProt P83916) (assay: HTS for Inhibitors of HP1-beta Chromodomain Interactions with Methylated Histone Tails). Details: AlphaScreen HP1-beta / biotin-H3K9me3 peptide binding; series mostly up to 114 µM; activity change, negative = inhibition: at the top concentration.
UniProt P83916, sequence (P83916 whole entry, looked up): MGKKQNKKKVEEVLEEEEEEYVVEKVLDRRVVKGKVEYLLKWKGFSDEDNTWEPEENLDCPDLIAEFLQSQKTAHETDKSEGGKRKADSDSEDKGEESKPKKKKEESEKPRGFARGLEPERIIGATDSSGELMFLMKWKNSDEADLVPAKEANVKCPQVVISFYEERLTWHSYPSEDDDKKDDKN
In short: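 HP1-beta protein (50 nM final) preincubated 30 min at room temperature with biotinylated H3(1-18)K9me3 peptide (50 nM) in PBS pH 7.4, 0.01% Tween-20, then compound added for 30 min. AlphaScreen streptavidin donor/nickel chelate acceptor beads (10 ug/mL final), 30 min dark, luminescence read.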
Further: nearly all actives have a fitted effect of over 70% in size.
Potency means the concentration at half of the fitted maximal effect; tags describe the fitted curve by direction and shape.

Row | SMILES | activity change, negative = inhibition | Potency
1 | COc1ccc(OC)c(C2C(C(=O)Nc3ccc(C)cc3C)=C(C)Nc3c(C(=O)Nc4ccc(F)cc4)cnn32)c1 (centres undefined) | inactive: -15.9% | 
2 | Cc1ccc(N2C(=O)CS/C2=C(\C(Cl)=C(Cl)Cl)[N+](=O)[O-])cc1 |  | inconclusive: 22.4 µM [inhibitor, full curve, poor fit]
3 | O=C(N/N=C\c1c(O)ccc2ccccc12)c1ccc(S(=O)(=O)N2CCCCC2)cc1 | inactive: 5.24% | 
4 | COc1ccc(N2CCC(CNS(=O)(=O)c3cccc(C(F)(F)F)c3)C2)cc1 (centres undefined) |  | inconclusive: 20 µM [inhibitor, full curve, poor fit]
5 | Cc1cnc(CN2CCCC(C(=O)c3ccc4c5c(cccc35)CC4)C2)[nH]1 (centres undefined) |  | inconclusive: 44.7 µM [inhibitor, partial curve, poor fit]
6 | Cc1cc(Cl)c(OCCOCCN2CCN(C)CC2)c(Br)c1 |  | inconclusive: 15.8 µM [inhibitor, partial curve, poor fit]
7 | COc1ccc(N2CCN(Cc3cc(OC)c(O)c([N+](=O)[O-])c3)CC2)cc1 |  | active: 15.8 µM
8 | Oc1ccccc1-c1nc2cnccn2c1Nc1ccc2c(c1)OCCO2 |  | inconclusive: 17.8 µM [inhibitor, full curve]
9 | O=C1C2CCCCC2C(=O)N1c1ccc(NC2CCN(Cc3ccccc3)CC2)c([N+](=O)[O-])c1 (centres undefined) |  | inconclusive: 15.8 µM [inhibitor, full curve]
10 | Cc1ccc(-n2c(O)c(C=Nc3ccccc3-c3n[nH]c(=S)[nH]c3=O)c3ccccc3c2=O)cc1C | inactive: -35.6% | 
11 | O=C(Cc1ccccc1)Nc1ccccc1N1CCCC1 | inactive: 11.8% | 
12 | Cc1cc(OCCN2CCCCCC2)ccc1[N+](=O)[O-] |  | inconclusive: 28.2 µM [inhibitor, partial curve]
13 | Cc1ccc(-c2csc(N=C(N)N)n2)c(C)c1 |  | inconclusive: 56.2 µM [inhibitor, partial curve, poor fit]
14 | CCCCCCN1C=CC=C/C1=C/C=C(C#N)C#N | inactive: -22.6% | 
15 | CC(C)(C)C(=O)[C@@H]1[C@@H]2C(=O)N(c3ccc4c(c3)OCCO4)C(=O)[C@@H]2C2c3ccccc3C=CN21 (some centres undefined) |  | inconclusive: 89.1 µM [inhibitor, single point]
16 | O=C(/C=C/c1ccc([N+](=O)[O-])cc1)c1ccccc(=O)c1O |  | inconclusive: 70.8 µM [inhibitor, partial curve]
17 | CCN(c1ccccc1)S(=O)(=O)c1cc(C(=O)OCC(=O)c2c(N)n(C)c(=O)n(C)c2=O)ccc1C |  | inconclusive: 14.1 µM [inhibitor, full curve, poor fit]
18 | CCOC(=O)c1c(C)oc2c1c(C(c1cccnc1)N1CCOCC1)c(O)c1ccccc12 (centres undefined) |  | inconclusive: 22.4 µM [inhibitor, full curve, poor fit]
19 | O=C(NCc1ccccc1)c1ccc(C(=O)N(C2CCCCC2)C2CCCCC2)cc1 | inactive: 3.96% | 
20 | Cc1ccc(-c2nc(S(=O)(=O)c3ccc(F)cc3)c(N3CCN(c4ccccc4)CC3)o2)cc1 | inactive: -0.902% | 
21 | O=S(=O)(c1ccccc1)N1CCN(Cc2cccc(Br)c2)CC1 |  | inconclusive: 56.2 µM [inhibitor, partial curve, poor fit]
22 | CCN(CC)CCCNCC(=O)Nc1ccc2c(c1)CCC2 |  | inconclusive: 17.8 µM [inhibitor, partial curve, poor fit]
23 | Cc1ccccc1Nc1nn2c(=O)c3ccc(C(=O)NCC(C)c4ccccc4)cc3nc2s1 (centres undefined) | inactive: 5.39% | 

Row | SMILES | activity change, negative = inhibition | Potency
24 | O=C1c2ccccc2C(Nc2ccc3c(c2)OCO3)N1Cc1ccc2c(c1)OCO2 (centres undefined) |  | inconclusive: 17.8 µM [inhibitor, full curve]
25 | COc1ccccc1NC(C)=[N+](C)CCNS(=O)(=O)c1ccc(Cl)cc1 |  | inconclusive: 56.2 µM [inhibitor, partial curve, poor fit]
26 | CCc1ccccc1NC(=O)c1ccc2nc(C(C)C)oc2c1 | inactive: 15.1% [at 57 µM] | 
27 | Cc1nn(-c2ccccc2)c(C)c1/C=N/N1CCN(c2ccccn2)CC1 |  | inconclusive: 44.7 µM [inhibitor, partial curve]
28 | c1ccc(Cc2nn3c(COc4ccccc4)nnc3s2)cc1 |  | inconclusive: 15.8 µM [inhibitor, full curve, poor fit]
29 | Oc1c(Cl)cc(Oc2cc(Cl)c(O)c(CN3CCOCC3)c2)cc1CN1CCOCC1 |  | inconclusive: 79.4 µM [inhibitor, single point]
30 | Cc1cc(C)nc(SCc2nnc(SCC(=O)Nc3ccc(C)c(C)c3)n2Cc2ccco2)n1 |  | inconclusive: 35.5 µM [inhibitor, single point]
31 | O=C(NCc1n[nH]c(=S)n1Cc1ccccc1)c1ccccc1 | inactive: 7.55% | 
32 | O=C(CN1C(=O)c2cccc3cccc(c23)C1=O)NCCN1CCOCC1 | inactive: 26.5% | 
33 | O=C(O)c1ccccc1NCc1cccnc1 | inactive: 46.8% | 
34 | O=S(=O)(c1ccc(NCc2ccccc2)cc1)N1CCOCC1 | inactive: 17.6% | 
35 | COc1cc2[nH]c(Cl)c([N+](=O)[O-])c2cc1OC | inactive: -18.4% | 
36 | CCOc1ccccc1NC(=O)C(CC)Sc1nc2ccncc2[nH]1 (centres undefined) |  | inconclusive: 14.1 µM [inhibitor, full curve]
37 | CCOc1ccc(CN2CCc3nc(Nc4ccc5c(c4)OCCO5)ncc3C2)cc1 |  | inconclusive: 50.1 µM [inhibitor, partial curve]
38 | COc1ccc(C(C)C)cc1S(=O)(=O)Nc1ccccn1 | inactive: 24% | 
39 | Cn1c(SCC(=O)c2ccccc2)nnc1-c1cccnc1 | inactive: 21.7% | 
40 | CCOC(=O)N1CCN(C(=O)/C=C/c2ccc([N+](=O)[O-])cc2)CC1 | inactive: 38.5% | 
41 | O=C(O)C1CC(=O)N(c2ccc3c(c2)OCCO3)C1 (centres undefined) |  | inconclusive: 7.94 µM [inhibitor, full curve, poor fit]
42 | Oc1cccc(/C=N/Nc2cccc3cccnc23)c1 |  | inconclusive: 56.2 µM [inhibitor, single point]
43 | CCc1ccc(-c2nn(-c3ccccc3)cc2C2SCC(=O)N2Cc2ccco2)cc1 (centres undefined) |  | inconclusive: 25.1 µM [inhibitor, partial curve, poor fit]
44 | CCN(CC)C(c1ccc(C)cc1)c1nnnn1C1CCCCC1 (centres undefined) | inactive: 25.6% | 
45 | NC(N)=N/N=C/c1ccc(OCc2ccccc2)c(OCc2ccccc2)c1 |  | inconclusive: 56.2 µM [inhibitor, partial curve, poor fit]
46 | CCCCOc1cccc(C(=O)N(Cc2ccc(N(C)C)cc2)C2CCS(=O)(=O)C2)c1 (centres undefined) |  | inconclusive: 28.2 µM [inhibitor, partial curve, poor fit]

Row | SMILES | activity change, negative = inhibition | Potency
47 | COc1ccc(S(=O)(=O)N2CCN(C3CCCC(C)C3)CC2)cc1 (centres undefined) |  | active: 44.7 µM
48 | COc1ccc(C)cc1Nc1n[n+](-c2ccccc2)c(-c2ccc(N(C)C)cc2)s1 |  | inconclusive: 44.7 µM [inhibitor, partial curve]
49 | C=CCn1c(N)c(C(=O)NCc2ccco2)sc1=S |  | inconclusive: 79.4 µM [inhibitor, partial curve, poor fit]
50 | O=[N+]([O-])c1ccc(CNC2CCCc3ccccc32)cc1 (centres undefined) |  | inconclusive: 20 µM [inhibitor, full curve]
51 | Cc1ccc(CNc2ccc(Cl)cc2[N+](=O)[O-])cc1 |  | inconclusive: 56.2 µM [inhibitor, single point]
52 | Cc1cccc(/C=N/n2c(-c3cc(-c4ccccc4)n[nH]3)n[nH]c2=S)c1 |  | inconclusive: 35.5 µM [inhibitor, single point]
53 | NC(=O)c1ccc(NC(=O)C2CC(=O)N(c3ccc4c(c3)OCCO4)C2)cc1 (centres undefined) | inactive: 5.78% | 
54 | COc1ccccc1COCC(O)CN1CCN(S(=O)(=O)c2cccc(F)c2)CC1 (centres undefined) |  | inconclusive: 50.1 µM [inhibitor, single point]
55 | COc1ccc(C(=O)N2CCN(Cc3ccccc3[N+](=O)[O-])CC2)cc1 |  | inconclusive: 14.1 µM [inhibitor, full curve, poor fit]
56 | Fc1ccc(/C=N/n2c(C3CCCCC3)n[nH]c2=S)cc1 |  | inconclusive: 15.8 µM [inhibitor, full curve]
57 | O=C(CSc1n[nH]c(=O)[nH]c1=O)Nc1ccc2c(c1)C(=O)c1ccccc1C2=O |  | active: 11.2 µM
58 | COc1ccccc1CNC(=S)Nc1ccc2nc(N3CCN(C)CC3)cc(C)c2c1 |  | inconclusive: 44.7 µM [inhibitor, partial curve, poor fit]
59 | Clc1ccc(OCCCn2ccnc2)c(Br)c1 |  | active: 15.8 µM
60 | CCOc1ccccc1CN1CCN(Cc2[nH]c3ccccc3c2C)CC1CCO (centres undefined) | inactive: -11.2% | 
61 | O=C(O)C1CC(c2ccc(F)cc2)=NO1 (centres undefined) |  | inconclusive: 50.1 µM [inhibitor, single point]
62 | CCC(C)Sc1ccc([C@@H]2[C@@H]3C(=O)N(C)C(=O)[C@@H]3[C@]3(C(=O)OC)CCCCN23)cc1 (some centres undefined) | inactive: 39.2% | 
63 | COc1ccc(-n2nc([N+](=O)[O-])c(=NCc3ccc4c(c3)OCO4)n2O)cc1 |  | inconclusive: 50.1 µM [inhibitor, partial curve]
64 | O=C(NC1CCCC1)C(c1ccncc1)N(CC1CCCO1)C(=O)Cn1nnc(-c2cccs2)n1 (centres undefined) | inactive: 22% | 
65 | CC(=O)OCC(=O)C1(O)CCC2C3CCC4=CC(=O)CCC4(C)C3C(O)CC21C (centres undefined) | inactive: 30.7% | 
66 | COc1cccc(CN2CCN(Cc3ccco3)CC2)c1 |  | inconclusive: 14.1 µM [inhibitor, full curve, poor fit]
67 | Fc1ccc(/C=N/N2CCN(Cc3ccccc3)CC2)cc1 |  | inconclusive: 50.1 µM [inhibitor, partial curve]
68 | Cc1cc(OCCCn2ccnc2)ccc1C(C)C |  | inconclusive: 56.2 µM [inhibitor, partial curve, poor fit]
69 | CC(C)Cn1c(SCC(=O)Nc2cccnc2Cl)nnc1-c1ccco1 | inactive: 47% | 
